Hit rate of the full screen: of about 52,000 compounds, about 1,700 (3.3%) were called active. Rule as the data show it: active = survival mostly below about 52% (no sharp cut-off); inactive = mostly above about 56%. The list shows a part of the results.

In this assay the test system is Wild type. Description: S. aureus survival, RN4220 and DeltatarO strains – OD600, teichoic acid synthesis inhibitors, primary screen (AID 463173). The conditions noted are these: S. aureus RN4220 wild type/DeltatarO growth, OD600, 18 h, active compounds read low, screened at 18.75 µg/mL (by protocol).
With `COc1cccc(N2CC(NC(=O)C3CC3)CC2=O)c1` (configuration not stated), the survival is inactive: 79%.

Regarding `COc1ccc(NC(=O)Cn2c(=O)n(-c3ccc(C)c(C)c3)c(=O)c3c(C)c(C)sc32)cc1`, the survival was inactive: 144%.

As for `CCOc1ccc2c(c1)c(=O)c(C(=O)c1ccc(CC)cc1)cn2CC(=O)Nc1ccccc1C`, the survival is inactive: 78%.

On to `Cc1ccc(C)c(N2CCN(c3nc4c(S(=O)(=O)c5ccccc5)nnn4c4ccc(Cl)cc34)CC2)c1`, for which the survival is inactive: 97%.

Turning to `COc1ccc(N2CCN(c3cc(C)nc4nncn34)CC2)cc1`, the survival is inactive: 93%.

As to `CCOC(=O)/C(C#N)=N\Nc1ccccc1OC`, the survival was inactive: 105%.

Turning to `Cc1ccc(CCNC(=O)c2ccc(NC(=O)N3CCSc4ccccc43)cc2)cc1`, the survival was inactive: 75%.

With `Cc1ccc(NC(=O)Cn2nnc(C(=O)NCCc3ccccc3)c2N)cc1Cl`, the survival was inactive: 79%.

Take `COCC(=O)N1c2nc(-c3ccco3)nn2C2(CCCCC2)[C@@H]2CCCC[C@@H]21`: the survival was inactive: 80%.

On to `CCc1ccc2c(c1)c(=O)c(S(=O)(=O)c1ccccc1)cn2CC(=O)Nc1ccc(OC)cc1`, for which the survival is inactive: 83%.

With `CCOC(=O)c1c(S(=O)(=O)N2CCC(C(=O)Nc3cccc(C)n3)CC2)c(C)n(C)c1C`, the survival was inactive: 74%.

Regarding `CCC(C)NC(=O)Cn1c(=O)ccc2cc(S(=O)(=O)N3CCCC3)ccc21` (configuration not stated), the survival was inactive: 32%.

`CCCN(C(=O)c1cc2c(=O)oc3ccccc3c2s1)c1ccccc1C`: the survival is inactive: 58%.

For `COc1ccc(NC(=O)CN2C(=O)C3(SCC(=O)N3c3cccc(OC)c3)c3ccccc32)cc1` (configuration not stated), the survival was inactive: 72%.

Turning to `O=C(CSc1nc2ccsc2c(=O)n1Cc1ccccc1Cl)NCc1ccc(Cl)cc1`, the survival is inactive: 75%.

On to `O=C(CSc1nc2ccccc2n1Cc1c(F)cccc1Cl)N1CCN(c2ccc(F)cc2)CC1`, for which the survival was inactive: 78%.

On to `CCOc1cc(CNC(=O)c2ccc3nc(CCc4ccccc4)oc3c2)ccc1OC`, for which the survival is inactive: 65%.

`Cc1ccc(CNC(=O)C(C)n2ccc3cc(S(=O)(=O)N4CCCC4)ccc32)cc1` (configuration not stated): the survival is inactive: 66%.

Regarding `O=C(Nc1nnc(SCc2cc(=O)n3cc(Cl)ccc3n2)s1)c1cccc(F)c1`, the survival is inactive: 59%.

Turning to `O=C(c1ccc2c(Cl)c3c(nc2c1)CCCC3)N1CCN(c2ccccc2F)CC1`, the survival was active: 0%.

Regarding `Cc1ccc(N2C(=O)SC(Nc3ccccc3)C2=O)cc1` (configuration not stated), the survival is inactive: 118%.

Consider `CCOc1ccc(N2CC(c3nc4ccccc4n3CCOc3ccc(CC)cc3)CC2=O)cc1` (configuration not stated), for which the survival was inactive: 79%.

As for `COc1ccc(N2CC(NC(=O)c3c(F)cccc3Cl)CC2=O)cc1OC` (configuration not stated), the survival is inactive: 66%.

Turning to `CCC(C(=O)N1CCN(c2ccccc2)CC1)n1nc(C)c2sc3ccccc3c2c1=O` (configuration not stated), the survival is inactive: 75%.

With `Cc1ccccc1NC(=O)c1cnc2sc(N3CCCC3)nn2c1=O`, the survival is inactive: 66%.

Regarding `COc1cccc(C2=CC(c3ccccc3F)n3c(nc4ccccc43)N2)c1` (configuration not stated), the survival is inactive: 70%.

Regarding `COc1ccc(Cn2c(=O)[nH]c3cc(C(=O)N4CCN(c5cc(Cl)ccc5C)CC4)ccc3c2=O)cc1`, the survival was inactive: 65%.

On to `COC(=O)Cn1cnc2c(cnn2-c2ccc(OC)cc2)c1=O`, for which the survival was inactive: 108%.

For the compound `COc1ccccc1-c1noc(-c2ccc(NC(C)C)c([N+](=O)[O-])c2)n1`, the survival is inactive: 126%.

As to `COc1ccc(-c2nn(-c3cccc(F)c3)c3c2cnc2cc(OC)c(OC)cc23)cc1`, the survival is inactive: 93%.

Take `COc1ccc2[nH]cc(S(=O)(=O)c3ccc(C)c(C)c3)c(=O)c2c1`: the survival was inactive: 87%.

Regarding `O=C(CCCCn1c(=O)c2ccccc2n(CC(=O)Nc2cccc(F)c2)c1=O)NCCc1ccccc1`, the survival was inactive: 93%.

Turning to `O=C(Cn1cc(I)c(=O)[nH]c1=O)N1CCOCC1`, the survival was inactive: 100%.

`CCc1ccc(NC(=O)Cn2cc(S(=O)(=O)N3CCCC3)c(S(=O)(=O)N3CCCC3)c2)cc1`: the survival was inactive: 65%.

Consider `COc1ccc2oc(=O)c(-c3nc(-c4cccs4)no3)cc2c1`, for which the survival is inactive: 86%.

Regarding `Cc1ccc(NC(=O)Cn2nnc(C(=O)NCc3ccc4c(c3)OCO4)c2N)cc1Cl`, the survival was inactive: 101%.

For the compound `CC(C)NC(=O)CCN1C(=O)c2ccccc2Sc2ncccc21`, the survival is inactive: 90%.

On to `O=C(NC1CC(=O)N(c2ccc(F)cc2)C1)C1CC1` (configuration not stated), for which the survival is inactive: 85%.

Regarding `Fc1ccc(-c2ccc(NCc3ccccc3)nn2)cc1`, the survival was inactive: 119%.

On to `Cc1cc(C)cc(NC(=O)CCCc2nc(-c3ccccc3Cl)no2)c1`, for which the survival is inactive: 82%.

Take `CSc1nc2sc3c(c2c(=O)n1-c1ccccc1)CCC(C(C)(C)C)C3` (configuration not stated): the survival is active: 12%.

As for `Cc1ccc(NC(=O)C(C)Sc2nnc(C)n2C)cc1` (configuration not stated), the survival was inactive: 103%.

As for `Cn1c(=O)n(CCCc2ccccc2)c(=O)c2c1nc1n2CCN1c1ccc(F)cc1`, the survival is inactive: 67%.

Consider `CCOC(=O)c1cc2c(=O)n3ccccc3nc2n(Cc2ccco2)c1=NC(=O)c1ccc(OCC)cc1`, for which the survival was inactive: 69%.

With `O=C(c1cc(-c2ccc(O)cc2)on1)N1CCN(c2ccccc2)CC1`, the survival was inactive: 51%.

As for `CCn1c(=O)cc(OCC(=O)N2CCN(c3ccc(F)cc3)CC2)c2ccccc21`, the survival was inactive: 78%.

On to `CCN(c1cccc(C)c1)c1ncnc2c1cnn2-c1cccc(Cl)c1`, for which the survival was inactive: 79%.

For the compound `CCCCOC(=O)c1ccc(NC(=O)c2cnc3ccc(C)cn3c2=O)cc1`, the survival was inactive: 91%.

`Cc1nn(C(=O)c2ccc(Br)cc2)c(C)c1Sc1ccccc1`: the survival was active: -4%.

Take `COc1cc(OC)c(N(C)C(=O)c2sc3nc4n(c(=O)c3c2C)CCCC4)cc1Cl`: the survival is inactive: 78%.

Consider `CCOc1ccc(C/C(N)=N\n2cnnc2)cc1`, for which the survival was inactive: 115%.

Consider `COc1ccc(CN2COc3ccc4c(-c5ccccc5)cc(=O)oc4c3C2)cc1OC`, for which the survival is inactive: 94%.

For the compound `c1ccc2c3c(cc(N4CCOCC4)c2c1)OC1(N2CCOCC2)CCCCC1O3` (configuration not stated), the survival is inactive: 115%.

For `Cc1ccc(NC(=O)Cn2c(=O)n(Cc3nc(-c4ccccc4)no3)c(=O)c3cc4c(cc32)OCO4)c(C)c1`, the survival is inactive: 83%.

Turning to `Cc1nc(Nc2ccc(S(=O)(=O)N3CCCC3)cc2)c2nnn(Cc3ccccc3)c2n1`, the survival was inactive: 107%.

`CCOc1ccc2[nH]c3nc(SCC4CCCO4)nnc3c2c1` (configuration not stated): the survival was inactive: 114%.

In the case of `O=C(NCc1ccccc1)c1cnc(N2CCCCC2)c2ccccc12`, the survival is inactive: 71%.

The record behind these values is PubChem BioAssay AID463173 (ICCB-Longwood Screening Facility, Harvard Medical School, 2010).
